Laboratory results from PubChem BioAssay AID686971 (National Center for Advancing Translational Sciences (NCATS), 2013).
Out of some 360,000 compounds screened, about 7,500 (2.1%) were called active. This list was built around the results that the source calls inconclusive (neither active nor inactive); the mix of calls is not that of the screen. Calls come from the whole dose curve; as a rule, active = well fitted cell-killing curve with a large enough effect; inconclusive = small, poorly fitted or top-dose-only effect, or effect the other way, or another doubt; inactive = no such curve, though single readings can be large or run the other way. No potency is given beside an inconclusive call; the fits are too rough.

Assay: qHTS for induction of synthetic lethality in tumor cells producing 2HG: qHTS for the HT-1080-IDH1KD cell line;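 for activity, negative = toxicity: 0% = DMSO wells and -100% = cell-free medium wells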
Conditions: HT-1080 IDH1 knockdown viability, ATP luminescence, 48 h; activity, negative = toxicity: at 46.1 µM (top of the series) unless noted
Summary of the method: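 In this qHTS, HT-1080 cells depleted of IDH1 are exposed for 48 h at 37 °C to compound titrations. Toxicity is scored from CellTiter-Glo luminescence, with DMSO as full viability and medium alone as none.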
Potency is the fitted concentration of half-maximal effect; tags give direction and shape of the fitted curve.

Structure (SMILES)	Potency	activity, negative = toxicity
COc1ccc(NC(=O)CN(C)C(=O)CN2C(=O)c3ccc([N+](=O)[O-])cc3C2=O)cc1	inactive	–
COC(=O)[C@]12CCCCC=C1N(Cc1cccc3ccccc13)C(=O)[C@H](CC(=O)NCc1ccc(OC)c(OC)c1)C2	inconclusive [cytotoxic, single point]	–
CCN(CC)C1Oc2cc3c(cc2C(c2cc(OC)c(O)c(OC)c2)C1C)OCO3 (stereo unspecified)	inconclusive [cytotoxic, single point]	–
Cc1[nH]nc(C(F)(F)F)c1N=NN1CCOCC1	inconclusive [cytotoxic, single point]	–
COc1ccc(-n2nnnc2-c2ccccc2)cc1	inconclusive [cytotoxic, single point]	–
COC(=O)c1ccc2nc(-c3cccc(Cl)c3)c(Cc3ccsc3)n2c1	inconclusive [cytotoxic, single point]	–
C/C=C/Cn1c(SCc2ccc(C)cc2)nc2c1c(=O)[nH]c(=O)n2C	inconclusive [cytotoxic, single point]	–
COc1ccc(Cl)cc1S(=O)(=O)N1CCCC(C(=O)NCc2ccncc2)C1 (stereo unspecified)	inactive	–
OC[C@@H]1CN(Cc2ccc(Cl)cc2)C[C@H](n2cnc3c(NCc4ccc(F)cc4)ncnc32)O1	inconclusive [cytotoxic, single point]	–
CCOc1ccc(/C(O)=C2\C(=O)C(=O)N(c3ccccn3)C2c2ccccc2F)c(C)c1 (stereo unspecified)	inconclusive [cytotoxic, single point]	–
COc1ccc(N(CCC(=O)Nc2ccccc2F)S(=O)(=O)c2ccc(C)cc2C)cc1	inactive	–
CCNc1ccc(Br)cc(C(=O)/C=C/c2ccccc2Cl)c1=O	active: 12.6 µM	–
Cc1csc(NC(=O)c2sccc2C)n1	inconclusive [cytotoxic, partial curve, poor fit]	–
COC(=O)C1=CN(c2cccc(OCc3ccccc3)c2)C(N)=C(C#N)C1c1ccc(-c2ccccc2)cc1 (stereo unspecified)	inactive	–
Cc1cccc(NC(=O)c2nc[nH]c2C(=O)N(C)Cc2ccccc2)c1	inactive	–
Cc1ccc(C(=O)O/N=C/c2ccc(N(C)C)cc2)cc1	inactive	–
NC1=C(Br)C(=O)c2ncccc2C1=O	active: 3.26 µM	–
O=S(=O)(NC1CC1)c1ccc(S(=O)(=O)N2CCc3ccccc32)cc1	inconclusive [cytotoxic, single point]	–
N#CC1=C(N)C2=CCCC[C@H]2[C@H](c2cccc(F)c2)C1(C#N)C#N	active: 16.4 µM	–
CC1(C)C2CCC(C2)C1C/C=N/NC(N)=S (stereo unspecified)	inconclusive [cytotoxic, single point]	–
COc1ccc(NC(=O)/C(Cl)=C(/Cl)S(=O)(=O)Cc2ccccc2)cn1	active: 5.17 µM	–
C/C(CC(=O)Nc1ccccn1)=N\NC(=O)c1ccccc1O	active: 9.2 µM	–
Cc1cc2nc(-c3ccc(SCC(=O)N4CCN(C(=O)c5ccco5)CC4)nc3)[nH]c2cc1C	inconclusive [cytotoxic, single point]	–
O=S(=O)(c1cccs1)N1CCN(c2ccc(O)cc2)CC1	inconclusive [cytotoxic, partial curve]	–

Structure (SMILES)	Potency	activity, negative = toxicity
Cc1noc(C)c1COc1ccc(C(=O)N2CCN(c3ccccn3)CC2)cc1	inactive	–
COCc1cc(C)n(CC(=O)Nc2ccc(N3CCOCC3)c(Cl)c2)c(=O)c1C#N	inconclusive [rising, single point]	–
CC1(C)CC(=O)C=C(c2ccc(-c3ccc4[nH]ccc4c3)cc2)C1=O	inconclusive [cytotoxic, single point]	–
c1ccc(CCNc2cnccn2)cc1	inactive	–
Cc1cccc(OCc2nnc(SCC(=O)Nc3sc(C)c(C)c3C#N)n2C)c1	inconclusive [cytotoxic, single point]	–
COc1cccc(CNC(=O)C2CCN(c3cnccn3)CC2)c1	inactive	–
N/C(=N\c1nc2ccccc2o1)NC(=O)c1ccc(F)cc1	inconclusive [cytotoxic, single point]	–
Cc1cccc2sc(N(CCCN(C)C)C(=O)c3ccc(S(=O)(=O)N4CCc5ccccc5C4)cc3)nc12	inconclusive [cytotoxic, partial curve]	–
Nc1ccc(-c2nc3ccc(C(=O)O)cc3s2)cc1	inconclusive [cytotoxic, single point]	–
Cc1cc(C)n(-c2nc3ccccc3nc2N2CCCCCC2)n1	inactive	–
O=C1N[C@@H](Cc2c[nH]c3ccccc23)COC(=O)[C@@H](Cc2ccc(F)cc2)CC/C=C/C[C@@H]1CC(=O)N(CCO)Cc1ccccc1	inconclusive [cytotoxic, single point]	–
CCCCOc1ccc(N2CC(C(=O)NCCc3ccc(OC)c(OC)c3)CC2=O)cc1 (stereo unspecified)	–	inconclusive: -4.31% [cytotoxic]
COc1ccc(S(=O)(=O)Nc2ccccc2C(=O)Nc2nc(-c3ccc(F)cc3)cs2)cc1OC	inconclusive [cytotoxic, single point]	–
COc1ccccc1C(=O)Nc1nnc(CCc2ccccc2)s1	active: 6.51 µM	–
N#Cc1c(Nc2ccccc2Cl)s[nH]c1=O	active: 16.4 µM	–
CC(=O)Oc1ccccc1Cn1c(C)c(C(=O)NCc2ccc(Cl)c(Cl)c2)sc1=O	inconclusive [cytotoxic, single point]	–
CCCc1ccc(C2=Nn3c(nnc3C(C)C)SC2)cc1	inconclusive [cytotoxic, single point]	–
Cc1ccc(Cc2nc3ccccc3n2C(CCc2ccccc2)c2nc3ccccc3[nH]2)cc1 (stereo unspecified)	inactive	–
CN(C)c1ccc(/C=N/NC(=O)c2nonc2N)cc1[N+](=O)[O-]	–	inconclusive: 32.7%
Cn1cc(-c2coc3c(C(=O)NCc4ccco4)cccc23)cn1	inactive	–
COc1ccc(C(=O)Nc2ccccc2-c2nnn(CC(N)=O)n2)cc1	inconclusive [cytotoxic, single point]	–
O=C(Nc1ccccc1-c1ccccc1)C1CCCC1	inconclusive [cytotoxic, single point]	–
CC(C)(C)c1ccccc1OCCCCCn1ccnc1	inconclusive [cytotoxic, single point]	–
CCOc1cc(NS(=O)(=O)c2ccc(Cl)cc2)c(OCC)cc1NC(=O)CC(C)C	inconclusive [cytotoxic, single point]	–

Structure (SMILES)	Potency	activity, negative = toxicity
O=C(c1ccccc1)N1CCN(c2ccc([N+](=O)[O-])c(N3CCOCC3)c2)CC1	inactive	–
N/C(=N\OC(=O)c1ccccc1)C(Cc1ccccc1)C(=O)NOC(=O)c1ccccc1 (stereo unspecified)	inconclusive [cytotoxic, single point]	–
Cc1sc(N/N=C/c2cccnc2)nc1-c1ccccc1	inconclusive [cytotoxic, partial curve]	–
CC(C)(C)c1ccc(-c2cn(-c3ccc(Br)cc3)c3[n+]2CCCS3)cc1	active: 8.2 µM	–
CC(=O)N1CCN(c2ccc(NC(=O)c3ccc(C)c([N+](=O)[O-])c3)cc2)CC1	inactive	–
COCCNc1nc2ccccc2nc1NS(=O)(=O)c1ccc(C)cc1C	inactive	–
CC1C(=O)N2CCCc3cc(NC(=O)C(=O)NCCc4c[nH]c5ccccc45)cc1c32 (stereo unspecified)	inconclusive [cytotoxic, single point]	–
COc1ccc(S(=O)(=O)N2CCN(c3ccc(C)cc3C)CC2)cc1OC	inactive	–
Nc1sc(-c2ccccc2)cc1C(=O)NCCc1c[nH]c2ccccc12	inconclusive [cytotoxic, single point]	–
C=C1CC(C(=O)N/N=C/c2ccc(O)cc2)C1	inactive	–
CCc1noc(C)c1C(=O)Nc1nc(-c2ccc(OC)c(OC)c2)cs1	inactive	–
COc1cc(C(=O)c2cocc2C(=O)c2ccc3c(c2)OCO3)cc(OC)c1OC	active: 1.64 µM	–
O=C(CN(Cc1cccs1)S(=O)(=O)c1ccc(S(=O)(=O)NC2CCCCC2)cc1)Nc1ccccc1	inactive	–
O=C(CSC1=Nc2ccccc2C2=NC(Cc3c[nH]c4ccccc34)C(=O)N12)NC1CCCCC1 (stereo unspecified)	inactive	–
CCOC(=O)N1CCN(S(=O)(=O)c2ccc(C(=O)NNc3nc4c(C)cccc4s3)cc2)CC1	inconclusive [cytotoxic, partial curve]	–
CCC(C)NS(=O)(=O)c1ccc(NC(=O)C2CCN(C(=O)c3ccco3)CC2)cc1 (stereo unspecified)	inactive	–
COc1ccc(C=CC(=O)c2c(OC)cc(OC)c(OC)c2O)cc1	inconclusive [cytotoxic, single point]	–
CCOc1ccccc1C(=O)Nc1cc(OC)ccc1OC	–	inconclusive: 18.6%
Cc1ccc(OCc2nnn(CC(=O)NS(=O)(=O)c3c(C)noc3C)c2-c2ccccc2)cc1	inactive	–
COc1cc2c(cc1NC(=O)C(C)Sc1cccc[n+]1[O-])oc1ccccc12 (stereo unspecified)	inconclusive [cytotoxic, single point]	–
COC(=O)CN1C(c2cccc(Cl)c2)=Nc2ccc(Cl)cc2C1c1ccccc1 (stereo unspecified)	inconclusive [cytotoxic, partial curve]	–
C[C@H]1CN([C@@H](C)CO)C(=O)Cc2cc(NC(=O)CCC(F)(F)F)ccc2O[C@H]1CN(C)Cc1ccc(C(F)(F)F)cc1	inconclusive [cytotoxic, single point]	–
O=C(CSc1nc2ccccc2c(=O)n1CCCN1CCOCC1)Nc1ccc(F)c(Cl)c1	inconclusive [cytotoxic, single point]	–
